To fix the notation:
T1: UNK ZnF1-6 (called full-length) (human, UniProt Q9C0B0 30-357)
T1 sequence: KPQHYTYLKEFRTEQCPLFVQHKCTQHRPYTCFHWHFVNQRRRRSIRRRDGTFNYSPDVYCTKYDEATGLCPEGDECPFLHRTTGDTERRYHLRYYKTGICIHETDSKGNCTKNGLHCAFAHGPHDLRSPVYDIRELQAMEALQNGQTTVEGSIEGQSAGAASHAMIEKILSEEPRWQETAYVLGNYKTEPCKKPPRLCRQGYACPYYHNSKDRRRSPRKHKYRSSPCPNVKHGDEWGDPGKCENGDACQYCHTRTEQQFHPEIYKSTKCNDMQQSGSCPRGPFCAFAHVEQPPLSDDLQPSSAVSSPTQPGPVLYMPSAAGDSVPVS

B1: chr15:77046177:77046188:-|3pUTR|ENSG00000140391|msi1_unk|total|mutant (ssRNA)
RNA: GGGAGUUCUACAGUCCGACGAUCUUAAUCAAAGUUGGCUUUACCGGAGGAGUAUAAUGUAUGCACUACUGUUUUAAAAGAAUCCGUGUGAGUGUGUUUUUGUAUGAAUGAGCCCAUUCAUGGUAAGUCUUAAGCUUGUUGGAACAACAGAGGAUUGAGCAUCA
B2: chr2:37256661:37256929:-|CDS|ENSG00000115825|control|control|control (ssRNA)
RNA: GGGAGUUCUACAGUCCGACGAUCAGGAACUCCAGCAUACUUAGCCCCUGAAGUUCUCCGGAGCAAAGGUUACAACCGUUCCCUAGAUAUGUGGUCAGUGGGAGUUAUCAUCUAUGUGAGCCUCAGUGGCACAUUUCCUUUUAACAACAGAGGAUUGAGCAUCA
B3: ENSG00000078043:stop:overlap|stop_codon|ENSG00000078043|stop_codon|NA|stop_codon (ssRNA)
RNA: GGGAGUUCUACAGUCCGACGAUCGGAAAUGCAUCUUUAUGUCAGAAACACAAAGCAGCCCAACCAAAGGGUUUGUUAAUUUAUAGUUCACUAUUGUUCAUUACCCUUGCAACUAAUUGCUCUUGGAUAGAUUUAUAAAUGUCUCAACAGAGGAUUGAGCAUCA
B4: chr7:139045324:139045425:-|3pUTR|ENSG00000105939|msi1|FALSE|bound_elsewhere (ssRNA)
RNA: GGGAGUUCUACAGUCCGACGAUCAGUUCAAAACCGCUGUCAUGGCCCCAUGUGAUCUCUCCCUCCCCUACCCCUCUAUCAUUUAGUUUCUUCUGCGCAAGCCACUCUGGCUUCCUUUCAGUUUUGUGGUUCCCAUUUUUAGCUCAACAGAGGAUUGAGCAUCA
B5: ENSG00000198589:be:win_9301|3pUTR|ENSG00000198589|bound_else_gene|NA|bound_elsewhere_windowed (ssRNA)
RNA: GGGAGUUCUACAGUCCGACGAUCAGUACCAAAGCUCACUACUGCGGUUUGCCUGUGCCUGGACAAUGAGGCGGAGCCACUGUUGUUUUGUUGGGGCACCCCCUUCCCUCCCCGGGUUUGCAAAUAGAGGCUACCGGGUGCUGUCAACAGAGGAUUGAGCAUCA
B6: ENSG00000107863:be:win_5851|CDS_3pUTR|ENSG00000107863|bound_else_gene|NA|bound_elsewhere_windowed (ssRNA)
RNA: GGGAGUUCUACAGUCCGACGAUCAAAGCAGAGUUUCAUCCCUGUCUUUAAACUGGGGGUAUGUCCACUCUAGCAAGUAAAAAAACUACUGUUACACGUUCCAGUAACUCUGUCAAUAUUUUCUUGUAUCAGAAUUGUUAUUAUCAACAGAGGAUUGAGCAUCA
B7: chr5:133074000:133074114:+|CDS|ENSG00000170606|unk|FALSE|unique (ssRNA)
RNA: GGGAGUUCUACAGUCCGACGAUCUCUUGCAUAUGGAAUCUAUAAGCAGGAUCUUCCUGCCUUAGAAGAGAAACCAAGAAAUGUAGUUUUUGUAGACAUGGGCCACUCUGCUUAUCAAGUUUCUGUAUGUGCAUUUAAUAGAGGCAACAGAGGAUUGAGCAUCA
B8: chr19:57593639:57593745:+|3pUTR|ENSG00000171649|unk|total|mutant (ssRNA)
RNA: GGGAGUUCUACAGUCCGACGAUCUGAACCUUCUUAUUUCUCUACAUUCUUGCCAUACUUGGUAUGGUCCGUCUUUUUAAUUUCCGUUGUUUUAACCGCUGUAUAACCGCAUCUGUCUGUGAUUUUAUUGCAUUUUUCUGGUAUCAACAGAGGAUUGAGCAUCA
B9: chrX:119243754:119243940:+|3pUTR|ENSG00000101856|msi1|FALSE|unique (ssRNA)
RNA: GGGAGUUCUACAGUCCGACGAUCAGCUGCAAAAAAGCAUAUUUUCUGUGUUUCUGGACUGCACUGUUGUCCUUGCCCUCACAUAGACACUCAGACACCCUCACAAACACAGUAGUCUAUAGUUAGGAUUAAAAUAGGAUCUGACAACAGAGGAUUGAGCAUCA
B10: chr2:205796522:205796663:+|3pUTR|ENSG00000118257|msi1|FALSE|unique (ssRNA)
RNA: GGGAGUUCUACAGUCCGACGAUCGUUUUUAUUAAGUGCCUUGAAAAAAUGAAGAAAAAUGUAUUUUCCCUUUAUGUAAAAAUUAGUGAAUAUCUUAUGAAUUAAGGCAUUCCUCUUUCCCUAACCCCGAUGGCUCCAUUCCCACAACAGAGGAUUGAGCAUCA
B11: chr20:3933335:3933436:-|3pUTR|ENSG00000101236|msi1|total|mutant (ssRNA)
RNA: GGGAGUUCUACAGUCCGACGAUCUUACAACACCUGCUAUCAAAUCAUCUAAGCUGAAAACAUGAGAUGCGCUUGGAAAGGCCCCGUCAGAAGCCAUUUCCUCUUAUCAUUUCCCUCUCCUAUGCACCAGUAAGGCCCGUCCAGCAACAGAGGAUUGAGCAUCA
B12: ENSG00000198589:be:win_7001|CDS|ENSG00000198589|bound_else_gene|NA|bound_elsewhere_windowed (ssRNA)
RNA: GGGAGUUCUACAGUCCGACGAUCGAGCUUGGCGAAACAGUCAGCGUGAUACCUCUGAUAUUAAGGAGUUGAUCCCUGAAUUUUAUUAUCUCCCUGAGAUGUUUGUCAACUUCAAUAAUUAUAAUCUUGGAGUGAUGGAUGAUGCAACAGAGGAUUGAGCAUCA
B13: chr4:4235611:4235720:-|3pUTR|ENSG00000132406|unk|FALSE|unique (ssRNA)
RNA: GGGAGUUCUACAGUCCGACGAUCAUGAUAGUUUUGUUAGGUGACAGGACCAAAUGAAAAUAUUUUAUGUUUUCUCAUCACUUUAGAUUUUAUCAUUAUGUACAUUACUGGGUUUUUAGCAUUUCCUAAUGUGAAGUUUUAAUCCAACAGAGGAUUGAGCAUCA
B14: chr6:30110447:30110678:-|CDS|ENSG00000204616|control|control|control (ssRNA)
RNA: GGGAGUUCUACAGUCCGACGAUCCCAGGUAGAACAUGAGAAGCAAAGGAUCCUCACAGAAUUUGAACUCCUGCAUCAAGUCCUAGAGGAGGAGAAGAAUUUCCUGCUAUCACGGAUUUACUGGCUGGGUCAUGAGGGAACGGACAACAGAGGAUUGAGCAUCA
B15: chr1:229632307:229632408:+|CDS|ENSG00000135763|unk|FALSE|bound_elsewhere (ssRNA)
RNA: GGGAGUUCUACAGUCCGACGAUCAUUUUAUAAGAAAAAGCUUGAACUGAAGGAAGAUAUUGUUGAAAGGCUUUGGAUCUAUAUAGAUAACAUUUUACAUAGCAGAAAAUUGCAGAAUCUCCUCAAGAAUGGAAAGACCAUUAACAACAGAGGAUUGAGCAUCA
B16: chr19:35513049:35513475:-|CDS|ENSG00000161249|control|control|control (ssRNA)
RNA: GGGAGUUCUACAGUCCGACGAUCUGGCCAAGGGACCAGAGAAGCAGUUGGCACUGGAGUCAGGCAGGUUCCAGGCUUUGGCGUAGCAGAUGCUUUGGGCAACAGGGUCGGGGAAGCAGCCCAUGCUCUGGGAAACACUGGGCACAACAGAGGAUUGAGCAUCA
B17: chr3:120327094:120327202:-|3pUTR|ENSG00000163428|unk|FALSE|unique (ssRNA)
RNA: GGGAGUUCUACAGUCCGACGAUCGAAGAGAAGUCACCAAACACCUAGGGACAGUCCUAGGCCUAGAAAGCCCUUUAAAGUAAUAGUGAAUUGUUUUAAAAUUAAGUUAUUGAGUGGCCUACUGACUACCAUCCAAAAACCUUUCAACAGAGGAUUGAGCAUCA
B18: chr8:37846853:37847175:-|CDS|ENSG00000104221|control|control|control (ssRNA)
RNA: GGGAGUUCUACAGUCCGACGAUCGGCCAUCUGCACGCUGUUGUAUGCAGAUUUGGAUGUGUUUUCUAGCACUUACAUGCAGAUAGUGAAGCUCCUGGGACUGGAUGUGCCAUCUCUGUGCUUGGCAGAACUGGUGAAGACCUACAACAGAGGAUUGAGCAUCA

The other results are listed elsewhere or left out.

The assay deals with T1, UNK ZnF1-6 (called full-length). The assay can be described thus: nsRBNS (natural sequence RNA bind-n-seq); RBNS binding buffer (assumed for nsRBNS): 25 mM Tris pH 7.5, 150 mM KCl, 3 mM MgCl2, 0.01% Triton X-100, 500 ug/ml BSA, 20 U/ml SUPERase-In, 4 C; UNK is unkempt and MSI1 is Musashi-1; names of the RNAs are library labels; protein concentration not given here; high values mean tight binding.
B1 gave a binding signal of 0.359 enrichment R.

In turn, B2 showed a binding signal of 0.849 enrichment R.

The molecule B3 came in with a binding signal of 1.63 enrichment R.

B4 showed a binding signal of 6.61 enrichment R.

B5 displayed a binding signal of 1.64 enrichment R.

The molecule B6 returned a binding signal of 0.426 enrichment R.

As for B7, the binding signal turned out to be 0.465 enrichment R.

On to B8, for which the binding signal came to 1.21 enrichment R.

B9: the binding signal stood at 2.76 enrichment R.

As for B10, the binding signal came out at 1.12 enrichment R.

Regarding B11, the binding signal turned out to be 0.525 enrichment R.

Take B12: the binding signal amounted to 0.435 enrichment R.

B13 had a binding signal of 2.36 enrichment R.

For the molecule B14, the binding signal worked out at 1.06 enrichment R.

Turning to B15, the binding signal was 2.37 enrichment R.

Regarding B16, the binding signal stood at 1.16 enrichment R.

For the molecule B17, the binding signal was found to be 3.46 enrichment R.

B18 displayed a binding signal of 0.513 enrichment R.
